# Results reported in article PMC8080847, “Analysis of transient membrane protein interactions by single-molecule diffusional mobility shift assay” (Experimental & Molecular Medicine, 2021).
# B1: CD44 on human cancer cell lines (receptor)
# chain: [about 200 residues not listed]ATTLMSTSATATETATKRQETWDWFSWLFLPSESKNHLHTTTQMAGTSSNTISAGWEPNEENEDERDRHLSFSGSGIDDDEDFISSTISTTPRAFDHTKQNQDWTQWNPSHSNPEVLLQTTTRMTDVDRNGTTAYEGNWNPEAHPPLIHHEHHEEEETPHSTSTIQATPSSTTEETATQKEQWFGNRWHEGYRQTPKEDSHSTTGTAAASAHTSHPMQGRTTPSPEDSSWTDFFNPISHPMGRGHQAGRRMDMDSSHSITLQPTANPNTGLVEDLDRTGPLSMTTQQSNSQSFSTSHEGLEEDKDHPTTSTLTSSNRNDVTGGRRDPNHSEGSTTLLEGYTSHYPHTKESRTFIPVTSAKTGSFGVTAVTVGDSNSNVNRSLSGDQDTFHPSGGSHTTHGSESDGHSHGSQEGGANTTSGPIRTPQIPEWLIILASLLALALILAVCIAVNSRRRCGQKKKLVINSGNGAVEDRKPSGLNGEASKSQEMVHLVNKESSETPDQFMTADETRNLQNVDMKIGV
# notes: CD44, prey on the plasma membrane of the cancer cell lines
# B2: integrin5a on human cancer cell lines (receptor)
# chain: not shown
# notes: prey on the plasma membrane of the cancer cell lines
# Biological target: T1, EGFR on human cancer cell lines (human (endogenous in A431, A549, …, UniProt P00533))
# T1 construct: EGFR, the bait on the plasma membrane of the cancer cell lines; Labelled with the Alexa Fluor 647 Fab of the anti-EGFR antibody (a tool); source: endogenous, on living A431, A549, NCI-H508, Caco-2, Skbr3 and Skov3 cells
# Assay: single-molecule diffusional mobility shift assay (smDIMSA); average of the diffusion coefficient shifts over the cancer cell lines; EGFR as bait, each receptor as prey with an antibody targeting the prey
# Conditions: partners not purified
row,Binder,average diffusion coefficient shift in cancer cell lines [%]
1,B1,11.1
2,B2,10.2
